Experimental data taken from PubChem BioAssay AID360 (National Center for Advancing Translational Sciences (NCATS), 2006).
Screen size: about 48,000 compounds; about 550 (1.1%) were called active. Not shown: some 4% with an inconclusive outcome. Rule as the data show it: active = potency below about 15 µM; inconclusive = mostly about 16 µM to 33 µM; inactive = weaker than that. This is one part of the list.

The compounds below were run against Lysosomal acid glucosylceramidase (Homo sapiens) (UniProt P04062) (assay: Glucocerebrosidase). Details: purified enzyme, resorufin glucoside fluorescence (screen aimed at inhibitors), 20 min; series mostly up to 77 µM.
Chain of UniProt P04062 (P04062 whole entry, looked up): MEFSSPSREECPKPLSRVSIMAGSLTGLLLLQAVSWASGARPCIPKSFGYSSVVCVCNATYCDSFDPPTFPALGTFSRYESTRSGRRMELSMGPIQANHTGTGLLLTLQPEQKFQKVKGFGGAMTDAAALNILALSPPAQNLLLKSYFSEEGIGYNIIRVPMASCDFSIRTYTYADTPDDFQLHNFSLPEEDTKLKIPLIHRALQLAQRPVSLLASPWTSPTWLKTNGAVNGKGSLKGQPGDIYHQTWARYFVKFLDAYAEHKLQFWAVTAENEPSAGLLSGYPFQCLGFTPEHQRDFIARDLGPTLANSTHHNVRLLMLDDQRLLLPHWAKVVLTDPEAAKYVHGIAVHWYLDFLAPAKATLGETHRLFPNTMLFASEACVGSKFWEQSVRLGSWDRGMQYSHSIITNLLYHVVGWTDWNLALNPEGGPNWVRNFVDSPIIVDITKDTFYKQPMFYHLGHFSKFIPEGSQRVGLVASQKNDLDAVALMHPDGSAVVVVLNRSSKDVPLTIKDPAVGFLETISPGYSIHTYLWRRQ
Outline: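 Compounds titrated against 0.2 nM normal enzyme, 30 uM resorufin beta-D-glucopyranoside substrate, citrate/phosphate buffer with taurocholate and tween-20, pH 5.9. Reaction ran 20 min at room temperature; fluorescence (Ex 548/Em 600) gave AC50.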
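Also: the screen sought inhibitors.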
Potency is read from the fitted curve at half-maximal effect.

Potency, inactive:
CCN1CCN(C(c2cccs2)C(C)NC(=O)c2c(F)cccc2F)CC1 (stereo not drawn) > 76.9 µM
CCOC(=O)C(NC(=O)Nc1ccccc1)(OCC)C(F)(F)F (stereo not drawn) > 76.9 µM
Cc1noc(C)c1CSc1nnc(-c2c[nH]c3ccccc23)n1-c1ccc(Cl)cc1 > 76.9 µM
COc1cccc(NC(=O)N2CCCC2C(=O)NC(C)C)c1 (stereo not drawn) > 76.9 µM
CCCS(=O)(=O)N1CCC(C(=O)NC2CCC(C)CC2)CC1 (stereo not drawn) > 76.9 µM
Cc1ccc(CCNC(=O)CN2C(=O)COc3ccccc32)cc1 > 76.9 µM
COc1ccc(S(=O)(=O)NCCc2ccc(F)cc2)cc1 > 76.9 µM
CN(C)c1ccc(CN(C(=O)c2ccco2)C2CCS(=O)(=O)C2)cc1 (stereo not drawn) > 76.9 µM
CC1CN(c2nc3c(c(=O)n(C)c(=O)n3C)n2Cc2c(F)cccc2Cl)CC(C)O1 (stereo not drawn) > 76.9 µM
COc1cccc(C(=O)CN2C(=O)C(C)(C)Oc3ccc(C(=O)N4CCCCCC4)cc32)c1 > 76.9 µM
COCCNc1nnc(SCC(=O)N2CCN(S(=O)(=O)c3ccccc3)CC2)s1 > 76.9 µM
O=c1[nH]c(=S)c2c(n1-c1ccccc1)CCC2 > 76.9 µM
Cc1cc(C)n(Cc2cccc(F)c2)c(=O)c1C#N > 76.9 µM
CS(=O)(=O)Nc1ccc(S(=O)(=O)NCCc2ccccc2)cc1 > 76.9 µM
CCC(=O)Nc1cccc(NC(=O)CSc2nnnn2C)c1 > 76.9 µM
O=C(Nc1cccnc1)c1ccc2snnc2c1 > 76.9 µM
CCc1nnc(NC(=O)CSc2nnc(-c3ccc(O)cc3)n2-c2ccccc2)s1 > 76.9 µM
CCOC(=O)N1CCN(S(=O)(=O)c2ccc(C(=O)Nc3nc4c(s3)CC(C)CC4)cc2)CC1 (stereo not drawn) > 76.9 µM
O=c1c2c3nc4ccccc4nc3n(-c3cccc(F)c3)c2ncn1Cc1ccc2c(c1)OCO2 > 76.9 µM
COc1ccc(-c2nnc(SC(C)C#N)o2)cc1 (stereo not drawn) > 76.9 µM
Fc1ccc(-c2nnn(Cc3nc4ccccc4s3)n2)cc1 > 76.9 µM
CCOC(=O)N1CCC(NC(=O)CCC(=O)N2CCOc3ccccc32)CC1 > 76.9 µM
CCOc1ccc(-c2cn(S(=O)(=O)c3cccc4nsnc34)nc2N)cc1 > 76.9 µM
N#CCSc1nnc(-c2ccccc2O)n1CCc1ccccc1 > 76.9 µM
O=C(Cn1nnc2ccccc21)NC1CCCCC1 > 76.9 µM
c1ccc(-c2nnc(-c3ccco3)o2)cc1 > 76.9 µM
Cc1nc2cc(C(=O)O)ccc2s1 > 76.9 µM
O=c1[nH]c(CN2CCN(c3ccccc3)CC2)nc2ccccc12 > 76.9 µM
O=C(NC1CCCCC1)C(c1ccccc1)N1CCCC1 (stereo not drawn) > 76.9 µM
CCOC(=O)Cc1nnc(NC(=O)c2ccco2)s1 > 76.9 µM
O=C(CCCCCN1C(=O)c2ccccc2C1=O)Nc1nccs1 > 76.9 µM
O=C(c1cc(-c2ccco2)on1)N1CCOCC1 > 76.9 µM
COc1ccc(-c2nnc3ccc(SCC(=O)N4CCN(c5ccccc5)CC4)nn23)cc1OC > 76.9 µM
O=S(=O)(NCC1CCCO1)c1ccc(Br)s1 (stereo not drawn) > 76.9 µM
CC(NC(=O)Cn1nc(C(=O)O)c2ccccc2c1=O)c1ccccc1 (stereo not drawn) > 76.9 µM
Cc1nnc2sc(-c3ccc(NC(=O)c4ccc(-c5ccc(Cl)cc5Cl)o4)cc3)nn12 > 76.9 µM
COc1ccc(S(=O)(=O)N(C)CC(=O)NCc2cccnc2)cc1C > 76.9 µM
CCCCn1c(=O)cc(O)c2ccccc21 > 76.9 µM
C=CCn1c(SCC(=O)O)nnc1-c1ccc(C(C)(C)C)cc1 > 76.9 µM
C#CC(C)(CC)NC(=O)c1cc(OC)c(OC)c(OC)c1 (stereo not drawn) > 76.9 µM
CNC(=O)CN(c1ccc(OC)cc1)S(=O)(=O)c1ccc(F)cc1 > 76.9 µM
CCCn1c(=N)c(C(=O)NCc2ccc3c(c2)OCO3)cc2c(=O)n3cccc(C)c3nc21 > 76.9 µM
C1=CC2CC1CC2CNCc1ccco1 (stereo not drawn) > 76.9 µM
CCOC(=O)CC(=O)CSc1nc(C)nc2c1oc1ccccc12 > 76.9 µM
Nc1nc(CN2CCN(c3ccccn3)CC2)nc(Nc2ccc(Cl)cc2)n1
Cc1cc(C)n2c(=S)[nH]nc2n1 > 76.9 µM
C=CCn1c(=O)c2ccccc2n2c(SCC(=O)N3CCCc4ccccc43)nnc12 > 76.9 µM
COc1cc(C(=O)NCc2nnc(SCC(=O)Nc3cc(C)cc(C)c3)o2)cc(OC)c1OC > 76.9 µM
CCOC(=O)N1CCN(C(=O)c2cccc(NC3=NC4CS(=O)(=O)CC4S3)c2)CC1 (stereo not drawn) > 76.9 µM
Cc1ccc(SC(C)c2nc(-c3cccnc3)no2)cc1 (stereo not drawn) > 76.9 µM
Cn1c(=O)oc2cc(S(=O)(=O)NCCC(=O)N3CC=C(c4ccccc4)CC3)ccc21 > 76.9 µM
Cc1csc(NC(=O)c2sc3nc(-c4cccs4)ccc3c2N)n1 > 76.9 µM
Cc1ccc(S(=O)(=O)N2C(=O)CCC2C(=O)NCc2ccco2)cc1 (stereo not drawn) > 76.9 µM
CCn1cc(Br)c(C(=O)Nc2cccc(Cl)c2)n1 > 76.9 µM
O=C(NCc1ccc(F)cc1)c1noc2c1CCCC2 > 76.9 µM
O=C(O)CCN1C(=O)c2ccc(NC(=O)c3cccs3)cc2C1=O > 76.9 µM
Cc1cc(C)c2nc(N3CCCN(C(=O)c4cnccn4)CC3)c(C#N)cc2c1 > 76.9 µM
Cc1nn(C)cc1CNC(=O)c1cnn2c1NC(c1ccc(Br)cc1)CC2C(F)(F)F (stereo not drawn) > 76.9 µM
